Test results from PubChem BioAssay AID1159614 (National Center for Advancing Translational Sciences (NCATS), 2016).
About 65 (0.1%) of roughly 45,000 compounds were called active. Calls come from the whole dose curve; as a rule, active = well fitted activation curve with a large enough effect; inconclusive = small, poorly fitted or top-dose-only effect; inactive = no such curve, though single readings can be large or run the other way. The list shows a part of the results.

Target: Galactocerebrosidase (Homo sapiens) (UniProt P54803)
UniProt P54803, sequence (P54803 whole entry, looked up): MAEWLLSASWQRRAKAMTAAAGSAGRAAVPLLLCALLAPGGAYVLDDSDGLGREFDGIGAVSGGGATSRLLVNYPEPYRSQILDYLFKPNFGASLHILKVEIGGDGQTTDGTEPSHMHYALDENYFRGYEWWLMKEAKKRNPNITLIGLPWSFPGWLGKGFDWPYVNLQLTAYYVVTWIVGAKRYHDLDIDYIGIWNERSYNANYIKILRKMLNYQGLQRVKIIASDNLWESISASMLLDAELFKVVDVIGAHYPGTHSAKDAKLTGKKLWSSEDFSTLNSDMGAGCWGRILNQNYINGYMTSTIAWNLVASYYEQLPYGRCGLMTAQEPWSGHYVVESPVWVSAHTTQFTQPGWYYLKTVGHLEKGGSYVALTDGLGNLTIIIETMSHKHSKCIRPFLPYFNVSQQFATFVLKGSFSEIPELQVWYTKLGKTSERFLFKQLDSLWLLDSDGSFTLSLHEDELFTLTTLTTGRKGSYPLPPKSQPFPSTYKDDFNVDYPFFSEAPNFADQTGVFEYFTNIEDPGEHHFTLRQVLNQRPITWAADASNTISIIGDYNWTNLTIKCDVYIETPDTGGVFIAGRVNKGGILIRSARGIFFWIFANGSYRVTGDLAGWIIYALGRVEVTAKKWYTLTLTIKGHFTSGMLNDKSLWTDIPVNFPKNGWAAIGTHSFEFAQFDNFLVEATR
Assay: A Novel Cell-Based Assay to Identify Small Molecules for B -Galactocerebrosidase; note: 0% is about no effect; nearly all actives have a fitted effect of over 65% in size
Settings: 145M-Twi-hGALC-G270D cells (Twitcher mouse brain line with human GALC G270D), HMU-beta-Gal fluorescence, 48 h; series mostly up to 57.5 µM; activation: at the top concentration
Method in brief: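 Live 145M-Twi cells (Twitcher mouse brain-derived, GALC-null) stably expressing human GALC-G270D, with a wild-type GALC line, were compound-treated. Residual GALC activity was then read as fluorescence from 0.1 mM final HMU-β-gal at pH 5.2; higher signal means activation.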

activation, inactive:
CCOC(=O)c1[nH]c(C)c(C(=O)NC(CC)Cc2ccccc2)c1C (centres undefined) -5.3%, COc1ccc(C(=O)Nc2cc(C)c(O)c(-c3nc4ccccc4s3)c2)cc1OC -20.9%, CC(=O)Nc1ccc(NC(=O)CSc2nc3ccccc3nc2N2CCCCC2)cc1 -9.55%, CCN1CCN(c2ncnc3c2cnn3-c2ccc(C)c(C)c2)CC1 -14.3%, Cc1ccc(C)c(NC(=O)Cn2c(=O)n(CC3CCCO3)c(=O)c3ccccc32)c1 (centres undefined) -16.6%, Cc1oc(=O)oc1CN1CCN(c2cc3c(cc2F)c(=O)c(C(=O)O)c2n3C(C)S2)CC1 (centres undefined) -8.27%, CCOc1ccc(CNC(=O)c2ccc(CS(=O)Cc3ccc(Cl)cc3)o2)cc1 (centres undefined) -8.65%, CCN(Cc1ccccc1)C(=O)CN1C(=O)COc2ccc(S(=O)(=O)NC3CCCC3)cc21 3.82%, Cc1ccc(-c2nnn3c2nc(NCC(C)c2ccccc2)c2ccccc23)cc1 (centres undefined) -6.92%, COc1cccc(CNC(=O)c2ccc3c(c2)nc2n3CCOC2)c1 -6.35%, CCc1cccc(NC(c2ccccc2)c2nnc(-c3ccccc3F)o2)c1 (centres undefined) -11.9%, CCc1ccccc1Nc1ncnc2c1cnn2-c1ccc(C)cc1C -6.3%, COc1ccc(C(=O)Nc2nnc(S(=O)(=O)N3CCN(c4ccc(F)cc4)CC3)s2)cc1 -13.6%, COc1ccc(C(=O)Nc2nnc(S(=O)(=O)N(C)c3ccc(C)cc3)s2)cc1 -6.6%, COc1cccc(CNC(=O)c2cc3c(=O)n(Cc4cccnc4)ccc3nc2C)c1 -16.5%, Cc1ccc(NC(=O)CSc2nc3c(sc4ccccc43)c(=O)n2CCCC(=O)NC2CCCC2)cc1C 2.49%, CC(C)COc1ccc(C(=O)Nc2nnc(S(=O)(=O)N(C)Cc3ccco3)s2)cc1 -18%, CCOC(=O)c1c(C)[nH]c(C)c1S(=O)(=O)N1CCCC(C(=O)NCc2ccccc2Cl)C1 (centres undefined) 2.24%, COc1ccccc1CNC(=O)CN(c1ccccc1OC)S(C)(=O)=O 3.83%, CC(=O)Nc1ccc(OCC(O)CNC(C)C)cc1 (centres undefined) -7.2%, Cc1ccc2c(c1)Cc1c(nc(-c3ccc(F)cc3)nc1SCC(=O)N1CCCCC1)O2 -21.2%, CCC(C)NC(=O)Cn1c(=O)n(-c2ccc(OC)c(OC)c2)c(=O)c2ccccc21 (centres undefined) -13%, COc1ccc2cc(CCNS(=O)(=O)c3ccc(C)cc3)c(=O)[nH]c2c1 -8.57%, CCOC(=O)C1CCN(C(=O)c2c(C)nn(-c3ccc(F)cc3)c2-n2cccc2)CC1 -21.6%, Cc1ccc(Nc2c(-c3cccnc3)nc3ccc(Cl)cn23)cc1 -10.9%, Cc1ccc(Cl)cc1N1CCN(S(=O)(=O)c2ccc3c(c2)C(C(C)C)C(=O)N3)CC1 (centres undefined) -28.3%, CC(C)c1ccc(NC(=O)C2CCCN2S(=O)(=O)c2ccc3nc(-c4ccccc4)[nH]c3c2)cc1 (centres undefined) -7.57%, Cc1ccc(-n2ncc3c(N4CCN(Cc5ccccc5)CC4)ncnc32)cc1Cl -16.8%, CCc1cc(=O)[nH]c(SCc2nc(-c3cccc(Cl)c3)no2)n1 -7.68%, O=C(Nc1ccc(Cl)cc1)c1ccc(-n2cnnc2)cc1 -7.43%, O=C(COCc1cc(-c2cccs2)on1)NCc1ccc(F)cc1 -10.5%, Cc1cccc(OCC(=O)Nc2ccc3c(c2)nc(CN2CCCCC2)n3C)c1 -4.54%, O=S(=O)(c1ccc(-c2csc(=Nc3ccc(F)cc3)n2CCCCCCO)cc1)N1CCCC1 -13.2%, CCCc1nnc(NC(=O)Cc2coc3c(C)c(C)ccc23)s1 12.6%, COc1cc(NC(=O)Cn2ccc3ccccc3c2=O)cc(OC)c1OC -11.1%, COc1ccc(C(=O)N(Cc2sccc2C)C2CCS(=O)(=O)C2)cc1 (centres undefined) -9.39%, CCOCCCn1c(SCC(=O)Nc2ccc(CC)cc2)nc2ccccc2c1=O -12.9%, Cc1nc(C)c(-c2ccc(SCC(=O)Nc3cccc(C)c3C)nn2)s1 -13.8%, Cn1c(C(=O)NCCc2ccccc2)cc2sc(Cl)cc21 -16.2%, Cc1ccc(CNC(=O)CSc2nc3ccsc3c(=O)n2-c2ccc(Br)cc2)cc1 -3.83%, CCOc1ccc(CNC(=O)CN2N=C(c3ccccc3)CCC2=O)cc1OC -8.43%, CCc1ccc(C2C(C(=O)Nc3ccccc3OC)=C(C)Nc3nc(SCc4ccccc4)nn32)cc1 (centres undefined) -5.4%, Cc1ccc(-n2ncc(C(=O)NCCN3CCN(C)CC3)c2C2CCN(C(=O)OC(C)(C)C)CC2)cc1 -3.74%, COc1cccc(-c2oc3ccc(C)cc3c(=O)c2O)c1 -7.97%, CCOc1ccc(Nc2nc(C)c(NC(=O)c3cccc(F)c3)c(Nc3ccc(OCC)cc3)n2)cc1 -22.9%, Cc1noc(C)c1S(=O)(=O)N(CC(=O)NCCc1ccc(Cl)cc1)c1ccc(C(C)C)cc1 -18%, CCC1Oc2ccc(C)cc2N(CC(=O)N2CCN(c3ccccc3OC)CC2)C1=O (centres undefined) 3.82%, Cc1ccccc1C(=O)NNc1ncnc2c1cnn2-c1cccc(Cl)c1 -16.6%, CCc1ccc(NC(=O)C2CCN(S(=O)(=O)c3cccc(-c4noc(C)n4)c3)CC2)cc1 -10.2%, CCCc1ccc(NC(=O)C2CCCN(c3cnccn3)C2)cc1 (centres undefined) -8.55%, Cc1ccc(Cn2c(CNC(=O)c3ccc(Cl)c([N+](=O)[O-])c3)nc3cccnc32)cc1 -3.15%, CCOC(=O)c1cc(S(=O)(=O)Nc2c(C)cc(C)cc2C)[nH]n1 1.41%, Cc1ccc2nc(-c3ccc(NC(=O)COc4ccccc4C(C)(C)C)cc3)sc2c1 -10.8%, C[C@@H]1O[C@@H](OC[C@H]2O[C@@H](Oc3c(-c4ccc(O)c(O)c4)oc4cc(O)cc(O)c4c3=O)[C@H](O)[C@@H](O)[C@@H]2O)[C@H](O)[C@H](O)[C@H]1O -6.87%, O=C(Nc1ccccc1Br)c1cc(S(=O)(=O)NC2CCCCC2)ccc1F -15.1%, COc1cc(NC(=O)CN2CCCN(S(=O)(=O)c3ccc(F)cc3)CC2)cc(OC)c1 -20.5%, C=CCc1cccc2cc(-c3nc4ccc(C(=O)O)cc4[nH]3)c(=O)oc12 -15.6%, CCOC(=O)CCCCN(Cc1ccccc1F)S(=O)(=O)c1ccc(F)c(C(=O)Nc2cc(Cl)cc(Cl)c2)c1 -3.27%, COc1cc(-c2noc(-c3ccc(NC4CCCC4)c([N+](=O)[O-])c3)n2)cc(OC)c1OC -17.9%, COc1ccc(-c2noc(-c3cc(-c4ccc(F)cc4)n[nH]3)n2)cc1 -21.5%, O=C(NCc1ccc(F)cc1)c1nnc(Cc2cccc(F)c2)o1 -22.1%, CCOc1ccc(NC(=O)Nc2cc3c(cc2N2CCCCC2)n(C)c(=O)n3C)cc1 -31.4%, CCOC(=O)N1CCN(c2ncc3c(n2)CC(c2ccc(Cl)cc2)CC3=O)CC1 (centres undefined) -20.2%, CC(=O)NC(C)c1nc2ccccc2n1Cc1ccccc1Cl (centres undefined) 1.52%, CCOCCCNC(=O)c1ccc(Cn2c(=O)c3cccn3c3cccnc32)cc1 -9.66%, COc1ccc(C2C(C(=O)Nc3cccnc3)=C(C)Nc3nc(SCc4ccccc4)nn32)cc1 (centres undefined) -7.65%, Cc1ccc(C)c(NC(=O)C2CCCN2S(=O)(=O)c2ccc3c(c2)n(C)c(=O)c(=O)n3C)c1 (centres undefined) -24.7%, Cc1ccc(-c2cc3nccc(-c4cc([N+](=O)[O-])ccc4O)n3n2)cc1 1.64%, CCN1CCN(c2cc(C)c3cc(NC(=O)/C=C/c4cccc(OC)c4OC)ccc3n2)CC1 -12.4%, COc1ccc(C2=NC(C)(C)N(CC(=O)Nc3cc(OC)cc(OC)c3)C2=O)cc1 -15.1%, CN(c1ccc(F)cc1)S(=O)(=O)N1CCCC(C(=O)NCCc2ccccc2)C1 (centres undefined) -12.9%, Cc1nc2ccc(S(=O)(=O)NC(CC(C)C)C(=O)NCc3ccc(Cl)cc3)cc2s1 (centres undefined) -19.8%, Cc1c(C(=O)OC2CCCCCC2)[nH]c2c1C(=O)CC(c1ccccc1)C2 (centres undefined) -24.4%, CCOC(=O)C1CCN(C(=O)c2ccc3c(c2)sc2nc(-c4ccc(OC)cc4)cn23)CC1 9.25%, CCOc1ccc(S(=O)(=O)NCc2nc3cccnc3n2Cc2ccccc2OC)cc1 -4.32%, CCCCNC(=O)CSc1nc2n[nH]c(C)c2c(=N)n1-c1cccc(C)c1 -9.45%, CCCOc1ccc(-c2nc3ccc(Br)cc3c(=O)o2)cc1 -14.2%, CCCCN(CC)CCCNC(=O)c1cc2c(=O)oc3ccc(C)cc3c2s1 2.17%, CC1=C(C(=O)N2CCN(c3ccc(Cl)cc3)CC2)C2(CCC(C)CC2)OC1=O (centres undefined) 6.15%, O=C(Cn1c(=O)n(Cc2ccccc2)c(=O)c2sc3ccccc3c21)Nc1ccc(F)cc1 -12.2%, O=C(COc1ccc(Cl)cc1)NCC(c1cccs1)S(=O)(=O)c1ccc(F)cc1 (centres undefined) 3.69%, CCOC(=O)c1cc(-c2ccccc2)n(CC(=O)NCc2ccccc2)c1C -8.25%, COc1ccc(-c2nc3sc(CCNC(=O)C(=O)Nc4ccc(C)c(C)c4)c(C)n3n2)cc1 -3.53%, Cc1ccc(C)c(Cn2c(=O)n(CCCC(=O)NCCc3ccc(Cl)cc3)c(=O)c3ccccc32)c1 -8.17%, CC(C)c1ccc(NC(=O)c2cnc3sc(N4CCCC4)nn3c2=O)cc1 -7.88%, CCOC(=O)c1ccc(NC(=O)CC2C(=O)N(c3cccc(C)c3)C(=O)N2CCOC)cc1 (centres undefined) -14.7%, CCOc1ccc(-c2nonc2NC(=O)c2ccco2)cc1OCC -44.4%, Cc1ccc(OCC(=O)Nc2nnc(SCc3cc(=O)n4cccc(C)c4n3)s2)cc1 -24%, CCOc1cc(CNC(=O)NC2COc3ccccc3C2)cc(OCC)c1OCC (centres undefined) 12.8%, COc1ccc(OC)c(-c2csc(-c3c(N)c(C(=O)c4ccc(Cl)cc4)n4ccccc34)n2)c1 -17.1%, Cc1ccc(Cl)cc1NC(=O)CN1C(=O)COc2ccc(S(=O)(=O)N3CCCCCC3)cc21 9.68%, COc1ccccc1CCNC(=O)CCc1c(C)c2cc3c(C)c(C)oc3cc2oc1=O 0.599%, COc1cc(C(=O)NCCc2csc3nc(-c4ccccc4C)nn23)cc(OC)c1OC 4.46%, COc1ccc(NC(=O)Cn2c(=O)n(-c3ccc(OC)cc3)c(=O)c3ccc(C(=O)NCc4ccc(C)cc4)cc32)cc1 3.52%
